According to a compilation of properties of binary mixtures (doi:10.1007/s10953-022-01154-2):
The densities may have been worked out from excess volumes.

Experiment: xn = mol fraction of the nth substance listed
Conditions: 101.3 kPa

Structure (SMILES): CC[n+]1ccn(C)c1.N#C[S-] + CC1COC(=O)O1
- mass density (293.15 K, x1 = 0.0989): 1195 kg/m3
- mass density (293.15 K, x1 = 0.4): 1164 kg/m3
- mass density (293.15 K, x1 = 0.499): 1155 kg/m3
- mass density (293.15 K, x1 = 0.599): 1146 kg/m3
- mass density (293.15 K, x1 = 0.7045): 1138 kg/m3
- mass density (293.15 K, x1 = 0.796): 1130 kg/m3
- mass density (293.15 K, x1 = 0.8942): 1122 kg/m3
- mass density (293.15 K, x1 = 1): 1116 kg/m3
- mass density (298.15 K, x1 = 0.2045): 1180 kg/m3
- mass density (298.15 K, x1 = 0.2984): 1170 kg/m3
- mass density (298.15 K, x1 = 0.499): 1151 kg/m3
- mass density (298.15 K, x1 = 0.796): 1127 kg/m3
- mass density (298.15 K, x1 = 0.8942): 1119 kg/m3
- mass density (298.15 K, x1 = 1): 1113 kg/m3
- mass density (303.15 K, x1 = 0.0989): 1185 kg/m3
- mass density (303.15 K, x1 = 0.2045): 1175 kg/m3
- mass density (303.15 K, x1 = 0.2984): 1166 kg/m3
- mass density (303.15 K, x1 = 0.4): 1156 kg/m3
- mass density (303.15 K, x1 = 0.499): 1147 kg/m3
- mass density (303.15 K, x1 = 0.599): 1139 kg/m3
- mass density (303.15 K, x1 = 0.7045): 1131 kg/m3
- mass density (303.15 K, x1 = 0.796): 1124 kg/m3
- mass density (303.15 K, x1 = 0.8942): 1116 kg/m3
- mass density (303.15 K, x1 = 1): 1109 kg/m3
- mass density (308.15 K, x1 = 0.0989): 1180 kg/m3
- mass density (308.15 K, x1 = 0.2045): 1171 kg/m3
- mass density (308.15 K, x1 = 0.2984): 1161 kg/m3
- mass density (308.15 K, x1 = 0.4): 1152 kg/m3
- mass density (308.15 K, x1 = 0.499): 1143 kg/m3
- mass density (308.15 K, x1 = 0.599): 1135 kg/m3
- mass density (308.15 K, x1 = 0.7045): 1127 kg/m3
- mass density (308.15 K, x1 = 0.796): 1120 kg/m3
- mass density (308.15 K, x1 = 0.8942): 1113 kg/m3
- mass density (308.15 K, x1 = 1): 1106 kg/m3
- mass density (313.15 K, x1 = 0.0989): 1175 kg/m3
- mass density (313.15 K, x1 = 0.2045): 1166 kg/m3
- mass density (313.15 K, x1 = 0.2984): 1157 kg/m3
- mass density (313.15 K, x1 = 0.4): 1148 kg/m3
- mass density (313.15 K, x1 = 0.499): 1140 kg/m3
- mass density (313.15 K, x1 = 0.599): 1132 kg/m3
- mass density (313.15 K, x1 = 0.796): 1117 kg/m3
- mass density (313.15 K, x1 = 0.8942): 1109 kg/m3
- mass density (313.15 K, x1 = 1): 1103 kg/m3
- mass density (318.15 K, x1 = 0.0989): 1171 kg/m3
- mass density (318.15 K, x1 = 0.4): 1144 kg/m3
- mass density (318.15 K, x1 = 0.499): 1136 kg/m3
- mass density (318.15 K, x1 = 0.796): 1114 kg/m3
- mass density (318.15 K, x1 = 1): 1100 kg/m3
- mass density (323.15 K, x1 = 0.0989): 1166 kg/m3
- mass density (323.15 K, x1 = 0.2984): 1148 kg/m3
- mass density (323.15 K, x1 = 0.4): 1140 kg/m3
- mass density (323.15 K, x1 = 0.7045): 1117 kg/m3
- mass density (323.15 K, x1 = 0.796): 1110 kg/m3
- mass density (323.15 K, x1 = 0.8942): 1103 kg/m3
- mass density (323.15 K, x1 = 1): 1096 kg/m3
- mass density (328.15 K, x1 = 0.0989): 1161 kg/m3
- mass density (328.15 K, x1 = 0.2045): 1152 kg/m3
- mass density (328.15 K, x1 = 0.2984): 1144 kg/m3
- mass density (328.15 K, x1 = 0.4): 1135 kg/m3
- mass density (328.15 K, x1 = 0.7045): 1113 kg/m3
- mass density (328.15 K, x1 = 1): 1093 kg/m3
- mass density (333.15 K, x1 = 0.2045): 1148 kg/m3
- mass density (333.15 K, x1 = 0.2984): 1139 kg/m3
- mass density (333.15 K, x1 = 0.4): 1131 kg/m3
- mass density (333.15 K, x1 = 0.499): 1124 kg/m3
- mass density (333.15 K, x1 = 0.599): 1117 kg/m3
- mass density (333.15 K, x1 = 0.7045): 1110 kg/m3
- mass density (333.15 K, x1 = 0.796): 1104 kg/m3
- mass density (333.15 K, x1 = 0.8942): 1097 kg/m3
- mass density (333.15 K, x1 = 1): 1090 kg/m3
- mass density (338.18 K, x1 = 0.0989): 1151 kg/m3
- mass density (338.18 K, x1 = 0.2045): 1143 kg/m3
- mass density (338.18 K, x1 = 0.4): 1127 kg/m3
- mass density (338.18 K, x1 = 0.499): 1120 kg/m3
- mass density (338.18 K, x1 = 0.599): 1113 kg/m3
- mass density (338.18 K, x1 = 0.7045): 1107 kg/m3
- mass density (338.18 K, x1 = 0.796): 1100 kg/m3
- mass density (338.18 K, x1 = 0.8942): 1093 kg/m3
- mass density (338.18 K, x1 = 1): 1087 kg/m3
- mass density (343.15 K, x1 = 0.0989): 1146 kg/m3
- mass density (343.15 K, x1 = 0.2045): 1138 kg/m3
- mass density (343.15 K, x1 = 0.2984): 1131 kg/m3
- mass density (343.15 K, x1 = 0.599): 1110 kg/m3
- mass density (343.15 K, x1 = 0.7045): 1103 kg/m3
- mass density (343.15 K, x1 = 0.796): 1097 kg/m3
- mass density (343.15 K, x1 = 0.8942): 1090 kg/m3

Structure (SMILES): CC1COC(=O)O1 (centres undefined) + CC[n+]1ccn(C)c1.N#C[S-]
- mass density (298.15 K, x2 = 0): 1200 kg/m3
- mass density (303.15 K, x2 = 0): 1194 kg/m3
- mass density (313.15 K, x2 = 0): 1184 kg/m3
- mass density (318.15 K, x2 = 0): 1179 kg/m3
- mass density (323.15 K, x2 = 0): 1173 kg/m3
- mass density (328.15 K, x2 = 0): 1168 kg/m3
- mass density (338.18 K, x2 = 0): 1158 kg/m3
- mass density (343.15 K, x2 = 0): 1152 kg/m3
